Biological target: T1, M1/M4 W108A γ 12.1 StaR (Homo sapiens, UniProt P08173+P11229, A143L/A196T/A364L/F34A/K362A/L71A/S112A/S411A/T39A/T95A/V53L/W101A)
T1 construct: residues 1-95 of M4 fused to residues 88-438 of M1-receptor; residues 1-95 of the human M4-receptor (CHRM4, P08173) in place of M1 residues 1-87; expressed in transfected cells; host or cells: HEK293T (48 h transient transfection), membranes
T1 sequence (P08173 1-95 F34A/T39A/V53L/L71A limits assumed): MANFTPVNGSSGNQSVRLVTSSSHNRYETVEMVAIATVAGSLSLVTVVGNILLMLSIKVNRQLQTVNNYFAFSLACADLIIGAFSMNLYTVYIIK
T1 sequence (P11229 88-438 T95A/W101A/S112A/A143L/A196T/K362A/A364L/S411A limits assumed): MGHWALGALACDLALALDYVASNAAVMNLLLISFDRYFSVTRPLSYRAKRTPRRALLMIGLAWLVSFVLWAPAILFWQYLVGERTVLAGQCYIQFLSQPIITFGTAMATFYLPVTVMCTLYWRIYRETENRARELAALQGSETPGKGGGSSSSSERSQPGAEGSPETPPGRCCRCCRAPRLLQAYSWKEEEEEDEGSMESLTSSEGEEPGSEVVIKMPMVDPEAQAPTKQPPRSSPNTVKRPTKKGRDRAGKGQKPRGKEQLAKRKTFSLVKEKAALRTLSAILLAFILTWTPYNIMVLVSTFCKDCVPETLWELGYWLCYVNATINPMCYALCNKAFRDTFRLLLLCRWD
Assay: StaR radioligand saturation binding in HEK293T membranes
Details: HEK293T cell membranes, n = 3
Method: All experiments were performed in 96 well format over 2 h at room temperature using 5ug/well protein in a final volume of 400ul of assay buffer of the following composition: 20 mM HEPES, 100 mM NaCl and 10 mM MgCl2, pH 7.4 Binding reactions were terminated by rapid filtration through GF/B filters (Perkin Elmer, Boston, MA, USA) pre-soaked with 0.5% w/v PEI for 1 h. Filters were then washed 3 times with 1 mL ice-cold assay buffer. Dried filters were counted with UltimaGold scintillant (Perkin Elmer) using a Microbeta (Perkin Elmer, Boston, MA, USA). The specific bound counts (d.p.m.) were expressed as a percentage of the maximal binding observed in the absence of test compound (total) and non-specific binding determined in the presence of 10 μM atropine.
Affinity (KD) for [^3H] 77-LH-28-1 for each construct was determined in membranes by saturation binding assays, performed by incubating increasing concentrations of [^3H] 77-LH-28-1 in the absence or presence of 10μM atropine. Radioligand inhibition binding assays were performed by co-incubating membranes with increasing concentrations of test compounds and an approximate 5x concentration of the equilibrium dissociation constant (KD) concentration of [^3H]
Data was analyzed using PRISM (GraphPad). For saturation binding, non-specific and total binding data were analyzed to a one site binding model. […]

- Kd: 0.06 ± 0.03 nM
SMILES: CCCCC1CCN(CCCN2C(=O)CCc3ccccc32)CC1 [Compound 77-LH-28-1]
